Among the data in patent US20220267438A1 (Janssen / Centocor, published 2022) are Kd and EC50 values, retold here.

The term Kd denotes the free concentration of one partner at which half of the binding sites on the other are occupied at equilibrium, for simple one-to-one binding. What is called EC50 is the concentration at which the effect is half-maximal.

Assay [1] concerns the target T1, BCMW37 (recombinant human BCMA antigen) (human, UniProt Q02223 1-54, limits assumed).
T1 construct: also called BCMA BCMW37 chain; human BCMA (SPR antigen)
T1 sequence (looked up): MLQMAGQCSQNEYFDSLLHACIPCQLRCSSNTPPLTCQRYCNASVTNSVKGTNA
The assay can be described thus: SPR, BCMA binding, release sample. In general terms: In SPR one partner is held on a chip, and binding of the other changes the refractive index at the surface.

Assay [2] has as its target T2, human BCMA (B cell maturation antigen, TNFRSF17) on cells (human, UniProt Q02223 1-184).
T2 construct: whole, on cells; Target on H929 or MM.1R GPRC5D knockout cells, K562 cells expressing human BCMA, HEK293 cells of the cell microarray, and BCMA-only lymphoma lines; also called CD269; surface BCMA
T2 sequence (looked up): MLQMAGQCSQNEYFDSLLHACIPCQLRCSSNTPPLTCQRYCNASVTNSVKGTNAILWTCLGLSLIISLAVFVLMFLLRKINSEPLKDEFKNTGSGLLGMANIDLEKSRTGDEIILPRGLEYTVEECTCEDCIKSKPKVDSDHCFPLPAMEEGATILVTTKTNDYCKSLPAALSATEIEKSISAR
The assay can be described thus: flow cytometry, H929-GPRC5D-KO cells (BCMA arm), 1 h 37C; Run 3. The method, then:
(§1) Flow cytometry was used to evaluate the BCMA and GPRC5D arm binding of BGCB491 in vitro. BGCB491 and isotype control were tested on a panel of H929-WT, H929-BCMA-KO, H929-GPRC5D-KO, and H929-BCMA/GPRC5D-KO cell lines after 1-hour 37° C. incubation.
(In flow cytometry, cells or beads pass a laser one at a time.)

In assay [3] the target is T3, human CD3 (CD3ε of the TCR/CD3 complex) on primary human pan T cells (human, UniProt P07766).
T3 construct: whole, on cells; On T cells CD3ε stands in the whole TCR/CD3 complex
The assay can be described thus: flow cytometry, pan T cells, donor D327645; estimated, fixed saturation point from bioinformatic extrapolation. The method, then: Flow cytometry was used to evaluate the CD3 arm (i.e., CD3B376) binding of BGCB491 to CD3⁺ pan T cells from 7 different healthy human. Cell-based EC₅₀ for CD3B376 could not be determined due to lack of saturation kinetics at 1 hour (FIG. 26). Bioinformatic extrapolation was performed (FIG. 27) using the CD3B376×Null control antibody (i.e., GCDB381) molecule, which saturates within 2 μM top concentration dose-response to constrain the top of the non-linear regression curve to generate a full curve that enables estimation of ECₓ values (Table 21).

The target of assay [4] is T2, human BCMA (B cell maturation antigen, …). The assay can be described thus: flow cytometry, H929-GPRC5D-KO cells (BCMA arm), 1 h 37C; Run 2. The method, then:
as §1

Assay [5] addresses T4, CD3W200, recombinant CD3εγ heterodimer construct (human, UniProt P07766 22-118; P09693 23-103).
T4 construct: also called human CD3 (SPR antigen for BGCB491)
The assay can be described thus: SPR, CD3 binding after thermal stress.

Assay [6] deals with T3, human CD3 (CD3ε of the TCR/CD3 complex) …. The assay can be described thus: flow cytometry, human pan T cells, 1 h 37C; total average of three donors. The method, then:
(§2) For binding of BGCB463 to human and cynomolgus Pan T cells, three human donors (Hemacare) were selected, quickly thawed, resuspended, and aliquoted into a 96-well plate at 1×10⁶ cells/mL. Cells were then washed, Fc blocked if necessary (Innovex), and stained with viability dye (Invitrogen). BGCB463 and its corresponding isotype (B23B251) were diluted in complete media to an initial concentration of 2 μM and 1:3 serial dilutions in duplicate were performed for a dose-response curve. The cells were incubated with molecules at 4° C. or 37° C. for 1 hour. When necessary, incubation with 90% human serum (Sigma) was also performed as described above.
(§3) First, FACS-based binding for GPRC5D and BCMA binding arms of the trispecific molecule was determined by measuring the effective concentration (EC) range from a dose-response curve using a 4-parameter fit at 37° C. for 1 hr. This was assessed using an H929 suite of cells (WT, GPRC5D-KO, BCMA-KO, and GPRC5D/BCMA KO), and a similar MM.1R suite. Cell based EC₅₀ is approximately 13 nM for WT H929 (FIGS. 2A-2D, Table 7) and 2.4 nM for WT MM.1R (FIGS. 3A-3D, Table 8). […] Next, cell-based EC₅₀ was determined for the CD3-binding Fab arm using purified Pan T cells from three random donors. […] Next, dose responsive binding was assessed at 4° C. to remove any potential biological effects. […]

Assay [7] addresses T2, human BCMA (B cell maturation antigen, …). The assay can be described thus: flow cytometry, H929 GPRC5D KO cells, 1 h 37C; Run 1. The method, then: (§4) First, FACS-based binding for GPRC5D and BCMA binding arms of the trispecific molecule was determined by measuring the effective concentration (EC) range from a dose-response curve using a 4-parameter fit at 37° C. for 1 hr. This was assessed using an H929 suite of cells (WT, GPRC5D-KO, BCMA-KO, and GPRC5D/BCMA KO), and a similar MM.1R suite. Cell based EC₅₀ is approximately 13 nM for WT H929 (FIGS. 2A-2D, Table 7) and 2.4 nM for WT MM.1R (FIGS. 3A-3D, Table 8). A clear avidity affect is observed as EC₅₀ and Bmax are both reduced in GPRC5D-KO and BCMA-KO lines which test monovalent binding of target binding arms (Table 7). Next, cell-based EC₅₀ was determined for the CD3-binding Fab arm using purified Pan T cells from three random donors. […] Next, dose responsive binding was assessed at 4° C. to remove any potential biological effects. As shown in FIGS. 5A-5C, binding is stronger (50-100 nM) at 4° C., compared to 37° C., which may indicate internalization. Additionally, two expression lots of BGCB463 (BGCB463.003 from transient transfection and BGCB463.004 from a stable transfection pool), were directly compared with binding to H929, MM.1R, and Pan T cells and no differences were noted (FIGS. 6A-6C).

Assay [8] addresses T3, human CD3 (CD3ε of the TCR/CD3 complex) …. The assay can be described thus: flow cytometry, human pan T cells, Donor 3, 1 h 37C; average of runs. The method, then: as §2, §3
For assay [9] the target is unchanged. The assay can be described thus: flow cytometry, human pan T cells, Donor 1, 1 h 37C; Run 3. The method, then: as §2, §3
For assay [10], the target named is T2, human BCMA (B cell maturation antigen, …). The assay can be described thus: flow cytometry, MM.1R GPRC5D KO cells, 1 h 37C; Run 3. The method, then: as §4
Assay [11] concerns the target T3, human CD3 (CD3ε of the TCR/CD3 complex) …. Briefly: flow cytometry, human pan T cells, Donor 2, 1 h 37C; Run 5. The method, then:
as §2, §3

The target is the same in assay [12]. Briefly: flow cytometry, human pan T cells, Donor 1, 1 h 37C; Run 4. The method, then: as §2, §3

B1: BGCB491 (other)
heavy: QVQLQQSGPRLVRPSQTLSLTCAISGDSVFNNNAAWSWIRQSPSRGLEWLGRTYYRSKWLYDYAVSVKSRITVNPDTSRNQFTLQLNSVTPEDTALYYCARGYSSSFDYWGQGTLVTVSSASTKGPSVFPLAPSSKSTSGGTAALGCLVKDYFPEPVTVSWNSGALTSGVHTFPAVLQSSGLYSLSSVVTVPSSSLGTQTYICNVNHKPSNTKVDKKVEPKSCDKTHTCPPCPAPEAAGGPSVFLFPPKPKDTLMISRTPEVTCVVVSVSHEDPEVKFNWYVDGVEVHNAKTKPREEQYNSTYRVVSVLTVLHQDWLNGKEYKCKVSNKALPAPIEKTISKAKGQPREPQVYTLPPSREEMTKNQVSLSCAVKGFYPSDIAVEWESNGQPENNYKTTPPVLDSDGSFFLVSKLTVDKSRWQQGNVFSCSVMHEALHNRFTQKSLSLSPGKGGGGSGGGGSGGGGSGGGGS[letters of about 100 residues not shown]QFPHTFGQGTKLEIKGGSEGKSSGSGSESKSTGGSQVTLKESGPVLVKPTETLTLTCTVSGFSLTNIRMSVSWIRQPPGKALEWLAHIFSNDEKSYSTSLKSRLTISRDTSKSQVVLTLTNVDPVDTATYYCARMRLPYGMDVWGQGTTVTVSS
light: QSALTQPASVSGSPGQSITISCTGTSSNIGTYKFVSWYQQHPDKAPKVLLYEVSKRPSGVSSRFSGSKSGNTASLTISGLQAEDQADYHCVSYAGSGTLLFGGGTKLTVLGQPKAAPSVTLFPPSSEELQANKATLVCLISDFYPGAVTVAWKADSSPVKAGVETTTPSKQSNNKYAASSYLSLTPEQWKSHRSYSCQVTHEGSTVEKTVAPTECS
chain: EIVLTQSPGTLSLSPGERATLSCRASQSISSSFLTWYQQKPGQAPRLLIYGASSRATGIPDRFSGGGSGTDFTLTISRLEPEDFAVYYCQHYGSSPMYTFGQGTKLEIKGGSEGKSSGSGSESKSTGGS[letters of about 100 residues not shown]DEGYSSGHYYGMDVWGQGTTVTVSSEPKSSDKTHTCPPCPAPEAAGGPSVFLFPPKPKDTLMISRTPEVTCVVVSVSHEDPEVKFNWYVDGVEVHNAKTKPREEQYNSTYRVVSVLTVLHQDWLNGKEYKCKVSNKALPAPIEKTISKAKGQPREPQVYTLPPSREEMTKNQVSLWCLVKGFYPSDIAVEWESNGQPENNYKTTPPVLDSDGSFFLYSKLTVDKSRWQQGNVFSCSVMHEALHNHYTQKSLSLSPGK
notes: Trispecific IgG1 antibody (L234A, L235A, D265S); Heavy chain 1 = anti-CD3 (CD3B376) Fab heavy chain, hole and RF mutations, with C-terminal anti-GPRC5D scFv (GC5B680); Heavy chain 2 = anti-BCMA scFv (BCMB519) - Fc knob; also called JNJ-79635322; BCMA×GPRC5D×CD3 trispecific mAb
As for B1, the results for the dissociation constant (Kd) in assay [1] and in assay [5] were 0.212 nM and 25.8 nM, respectively. Also, the values for the EC50 in [2], in assay [3] and in assay [4] were 224 nM, 3.36 µM and 54 nM, respectively.

B2: BGCB463 (other)
heavy: QVQLQQSGPRLVRPSQTLSLTCAISGDSVFNNNAAWSWIRQSPSRGLEWLGRTYYRSKWLYDYAVSVKSRITVNPDTSRNQFTLQLNSVTPEDTALYYCARGYSSSFDYWGQGTLVTVSSASTKGPSVFPLAPSSKSTSGGTAALGCLVKDYFPEPVTVSWNSGALTSGVHTFPAVLQSSGLYSLSSVVTVPSSSLGTQTYICNVNHKPSNTKVDKKVEPKSCDKTHTCPPCPAPEAAGGPSVFLFPPKPKDTLMISRTPEVTCVVVSVSHEDPEVKFNWYVDGVEVHNAKTKPREEQYNSTYRVVSVLTVLHQDWLNGKEYKCKVSNKALPAPIEKTISKAKGQPREPQVYTLPPSREEMTKNQVSLSCAVKGFYPSDIAVEWESNGQPENNYKTTPPVLDSDGSFFLVSKLTVDKSRWQQGNVFSCSVMHEALHNRFTQKSLSLSPGK
light: B1 light
chain: [letters of about 100 residues not shown]QFPHTFGQGTKLEIKGGSEGKSSGSGSESKSTGGSQVTLKESGPVLVKPTETLTLTCTVSGFSLTNIRMSVSWIRQPPGKALEWLAHIFSNDEKSYSTSLKSRLTISRDTSKSQVVLTLTNVDPVDTATYYCARMRLPYGMDVWGQGTTVTVSSEPKSSDKTHTCPPCPAPEAAGGPSVFLFPPKPKDTLMISRTPEVTCVVVSVSHEDPEVKFNWYVDGVEVHNAKTKPREEQYNSTYRVVSVLTVLHQDWLNGKEYKCKVSNKALPAPIEKTISKAKGQPREPQVYTLPPSREEMTKNQVSLWCLVKGFYPSDIAVEWESNGQPENNYKTTPPVLDSDGSFFLYSKLTVDKSRWQQGNVFSCSVMHEALHNHYTQKSLSLSPGKGGSEGKSSGSGSESKSTGGSEIVLTQSPGTLSLSPGERATLSCRASQSISSSFLTWYQQKPGQAPRLLIYGASSRATGIPDRFSGGGSGTDFTLTISRLEPEDFAVYYCQHYGSSPMYTFGQGTKLEIKGGSEGKSSGSGSESKSTGGS[letters of about 100 residues not shown]DEGYSSGHYYGMDVWGQGTTVTVSS
notes: Trispecific IgG1 antibody (L234A, L235A, D265S); Heavy chain 1 = anti-CD3 (CD3B376) Fab heavy chain with hole and RF mutations; also called BGCB463.003; BGCB463.004
Turning to B2, the EC50 in [6] stood at 329 nM; in [7], 106 nM; in [8], 354 nM; in [9] it was 293 nM; in [10], 142 nM; in [11] it was 132 nM. This molecule also returned an EC50 in assay [12] of 210 nM.
